Patent US20170051059A1 (Bristol-Myers Squibb, published 2017)

Biological target: T1, biotinylated IZ-hCD40L (biot-IZ-hCD40L) (human, UniProt P29965 113-261, biotinylated)
T1 construct: Biotinylated version of IZ-hCD40L, captured on a streptavidin SPR chip; not shown: N-terminal isoleucine zipper motif
T1 sequence (looked up): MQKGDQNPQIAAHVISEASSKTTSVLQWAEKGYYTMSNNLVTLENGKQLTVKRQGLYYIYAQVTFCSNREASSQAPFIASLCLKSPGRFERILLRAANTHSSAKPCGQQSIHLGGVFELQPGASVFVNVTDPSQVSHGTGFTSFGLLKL
Assay: SPR, BMS-986004 on a biot-IZ-hCD40L surface, 1:1 Langmuir fit; avidity-influenced

Kd: < 1 nM
B1: BMS-986004 (Fc fusion)
chain: EVQLLESGGGLVQPGGSLRLSCAASGFTFNWELMGWARQAPGKGLEWVSGIEGPGDVTYYADSVKGRFTISRDNSKNTLYLQMNSLRAEDTAVYYCVKVGKDAKSDYRGQGTLVTVSSAST[letters of human IgG1 Fc with changes left out]
notes: also called BMS2h-572-633-CT-L2; 2h-572-633-CT-L2
